# Reference: paper PMC10215934, “Daptomycin Pharmacokinetics in Blood and Wound Fluid in Critical Ill Patients with Left Ventricle Assist Devices” (Antibiotics, 2023)
# What was measured:
# [1] = system: Gram-positive pathogens; assay: Infections after LVAD implantation under prophylactic daptomycin; format: in vivo, human
# Source text: All patients were, on the day of surgery, free from infection and, after LVAD implantation, received standard intensive care. Daptomycin was used prophylactically to prevent an early Gram-positive bacteria-related infection in patients after LVAD implantation. According to the internal standard operating procedure for LVAD recipients, therapy was discontinued after five to seven days if there was no evidence of infection. Blood and wound secretions were drained from the mediastinum and sometimes one or both pleural spaces in the first three postoperative days.
# Samples were taken following the schedule below (Table 3).
# [2] = extracted samples, autosampler at room temperature
# Experimental: Optional: serum patient sample with daptomycin (grey curve 300 nm, black curve 370 nm).
# Daptomycin concentration [mg/l] […]
# validation, stability was tested in human serum and water for injection at different conditions, including room temperature, refrigeration at 4° C, and freezing at -20° C as well as -80° C. For stability testing, two samples were thawed out and subsequently analyzed. Stability was defined by the time at which the samples remained at a concentration of > 90% for their baseline concentrations.
# (1 picture or pasted object on this page, not shown here)
# [3] = Daptomycin concentration in wound (drainage) fluid, HPLC-UV; conditions: all three days
# Experimental: This single-center prospective trial was carried out in the intensive care unit 39 of the department of anesthesia and intensive care medicine at the university hospital of Tübingen from April 2017 to March 2019. All patients scheduled for implantation of a left ventricular assist device were screened for inclusion and exclusion criteria. All patients received prophylactic antibiotic therapy, including daptomycin, during the first 5 or 7 postoperative days. Daptomycin (5 to 8 mg per kg of body weight) was infused over 30 min, once daily, at 7 a.m. Samples were taken following the schedule below (Table 3).
# Blood samples were drawn from the arterial catheter already in place and considering hygiene requirements. The fluid samples from the drain systems were taken from the incorporated port under consideration of the standard hygienic procedures to avoid any contamination of the system. The samples were labeled with the number of the patient, the time of collection, and the date following the study protocol. All samples were centrifuged, and the supernatant was stored at −80 °C until dispatch to the laboratory in Heidenheim (Department of Pharmacy, General Hospital of Heidenheim). Measurements were performed using high-performance liquid chromatography with ultraviolet detection (HPLC-UV). […]
compound,measurement,setting,value
CCCCCCCCCC(=O)N[C@@H](Cc1c[nH]c2ccccc12)C(=O)N[C@H](CC(N)=O)C(=O)N[C@@H](CC(=O)O)C(=O)N[C@@H]1C(=O)NCC(=O)N[C@@H](CCCN)C(=O)N[C@@H](CC(=O)O)C(=O)N[C@H](C)C(=O)N[C@@H](CC(=O)O)C(=O)NCC(=O)N[C@H](CO)C(=O)N[C@@H]([C@H](C)CC(=O)O)C(=O)N[C@@H](CC(=O)c2ccccc2N)C(=O)O[C@@H]1C [Daptomycin],infections (any pathogen) in the nine patients,"[1]; herpes simplex virus in tracheal secretion, sepsis with Klebsiella oxytoca",Two
same,infections with evidence of Gram-positive pathogens,"[1]; prophylactic daptomycin after LVAD implantation, nine patients",no infections with evidence of Gram-positive pathogens
same,time without variation in the peak area after extraction,[2],at least 24 hours
same,accumulation of daptomycin in the wound drains,[3],did not observe any accumulation
